This is an account of results in publication PMC4336329 (PLoS ONE, 2015).

Molecules are shown by their SMILES. Screen size: about 310,000 compounds; about 14,000 (4.5%) showed an effect of 50% or more. The effect is printed as a negative number. This is one part of the list.
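Further: peak tail current of the secondary pulse compared with the same well before compound.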

human ether-à-go-go-related gene (hERG) potassium channel, sequence (Q12809 whole entry, looked up): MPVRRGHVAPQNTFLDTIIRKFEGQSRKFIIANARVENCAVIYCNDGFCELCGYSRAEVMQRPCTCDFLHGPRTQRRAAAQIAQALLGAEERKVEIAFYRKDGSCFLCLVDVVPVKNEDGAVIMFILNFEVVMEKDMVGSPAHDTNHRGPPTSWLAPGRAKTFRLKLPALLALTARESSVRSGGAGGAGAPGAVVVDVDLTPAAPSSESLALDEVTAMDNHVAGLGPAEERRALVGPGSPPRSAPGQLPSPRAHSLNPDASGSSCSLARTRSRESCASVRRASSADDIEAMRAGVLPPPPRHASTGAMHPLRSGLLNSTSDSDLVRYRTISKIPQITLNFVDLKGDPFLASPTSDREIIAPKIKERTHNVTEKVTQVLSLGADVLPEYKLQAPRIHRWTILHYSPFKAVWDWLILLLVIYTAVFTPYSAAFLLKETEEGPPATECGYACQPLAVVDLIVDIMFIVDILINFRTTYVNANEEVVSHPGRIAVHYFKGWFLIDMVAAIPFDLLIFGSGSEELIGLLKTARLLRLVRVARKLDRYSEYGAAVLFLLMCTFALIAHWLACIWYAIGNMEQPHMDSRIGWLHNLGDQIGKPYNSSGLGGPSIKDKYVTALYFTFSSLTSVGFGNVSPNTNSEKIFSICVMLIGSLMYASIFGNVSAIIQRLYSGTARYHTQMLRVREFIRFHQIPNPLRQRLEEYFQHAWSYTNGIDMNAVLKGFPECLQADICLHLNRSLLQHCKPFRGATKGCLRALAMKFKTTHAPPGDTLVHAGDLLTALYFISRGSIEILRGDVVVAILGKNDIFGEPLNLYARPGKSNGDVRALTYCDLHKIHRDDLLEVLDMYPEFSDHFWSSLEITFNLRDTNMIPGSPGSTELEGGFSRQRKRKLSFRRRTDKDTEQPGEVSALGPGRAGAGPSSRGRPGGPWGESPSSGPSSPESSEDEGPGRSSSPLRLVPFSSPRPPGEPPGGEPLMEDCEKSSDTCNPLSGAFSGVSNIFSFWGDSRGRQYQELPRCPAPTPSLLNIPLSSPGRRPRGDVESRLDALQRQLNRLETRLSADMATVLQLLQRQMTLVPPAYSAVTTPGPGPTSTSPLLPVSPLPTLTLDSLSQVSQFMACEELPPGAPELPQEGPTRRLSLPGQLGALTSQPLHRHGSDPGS

This test addresses human ether-à-go-go-related gene (hERG) potassium channel (human, UniProt Q12809). The test is described as follows: primary screen, population patch clamp on CHO cells stably expressing hERG.
Turning to `CCN(CC)S(=O)(=O)c1ccc(NC(=O)COC(=O)c2cnc(C)cn2)cc1`, the “hERG current change (%, negative = inhibition) at 10uM” value is -1.5%.

For `CC1(C)CCc2cc(-c3ccnc(=S)[nH]3)ccc2O1`, the “hERG current change (%, negative = inhibition) at 10uM” value is on record as 30.1%. Take `Cc1csc(N/N=C/c2c(F)cccc2Cl)n1`: the “hERG current change (%, negative = inhibition) at 10uM” value came out at 17.8%. The result for `O=C(Cc1cccs1)Nc1nc2c(ccc3ccccc32)s1` reads 18%; that for `CCOCC(=O)Nc1cccc(OC)c1`, -7.9%; that for `O=C1C(=O)N(CCO)C(c2ccccc2[N+](=O)[O-])/C1=C(\O)c1ccccc1` (centres unmarked), 14%. For `COCCCn1c(SCC(=O)Nc2sc3c(c2C#N)CCCC3)nnc1-c1ccncc1`, the “hERG current change (%, negative = inhibition) at 10uM” value is given as -49.4%.

In the case of `Cc1csc(NC(=O)c2ccc3c(c2)OCO3)n1`, the “hERG current change (%, negative = inhibition) at 10uM” value is -0.0676%. The result for `COc1ccccc1CNC(=O)c1cc(-c2ccccc2)nn1CC1CC(c2cccnc2)=NO1` (centres unmarked) reads -71.2%; that for `O=S(=O)(Nc1ccccc1)c1ccc(F)cc1`, -10.6%.

Consider `CC(C)Oc1ccc(CCC(=O)NNC(=O)CCC(=O)O)cc1`, for which the “hERG current change (%, negative = inhibition) at 10uM” value was 14.3%. Turning to `CC(C)(C)NC(=O)c1ccc2c(c1)CCO2`, the “hERG current change (%, negative = inhibition) at 10uM” value is listed as 4.77%. Take `COc1ccccc1N1CCN(CC(O)COc2ccc(C)c(C)c2)CC1.Cl` (centres unmarked): the “hERG current change (%, negative = inhibition) at 10uM” value was -55.9%.

On to `CCOc1ccc(NC(=O)CN(C)C(=O)c2ccccc2SCC(=O)N2CCCC2)cc1OCC`, for which the “hERG current change (%, negative = inhibition) at 10uM” value is 21.3%. On to `COc1ccc(/C=C(\NC(=O)c2ccccc2)C(=O)NCc2cccnc2)cc1`, for which the “hERG current change (%, negative = inhibition) at 10uM” value is given as -70.5%.

On to `C/C(=N/Nc1ccnc2cc(Cl)ccc12)c1ccc(N)cc1`, for which the “hERG current change (%, negative = inhibition) at 10uM” value was -48.5%. For `Cc1c(NC(=O)COC(=O)/C=C/c2cccc(Br)c2)c(=O)n(-c2ccccc2)n1C`, the “hERG current change (%, negative = inhibition) at 10uM” value is given as -15.8%.

With `CCOC(=O)CN1C(=O)C(O)(CC(=O)c2ccco2)c2ccccc21` (centres unmarked), the “hERG current change (%, negative = inhibition) at 10uM” value was 0.365%. On to `Cc1cc(OCC(O)CN2CCN(C)CC2)ccc1C(C)C.Cl` (centres unmarked), for which the “hERG current change (%, negative = inhibition) at 10uM” value is -1.06%.

Regarding `FC(F)(F)c1ccccc1CN1CCN(Cc2ccccc2)CC1`, the “hERG current change (%, negative = inhibition) at 10uM” value is 0.078%. The result for `COc1ccc2cc(C(N)=O)/c(=N\NC(=O)c3ccccc3)oc2c1` reads -8.42%; that for `NC(=O)CC(NC(=O)Cc1ccc(Br)cc1)c1ccc(N2CCC(Br)CC2)c([N+](=O)[O-])c1` (centres unmarked), 3.39%; that for `Cc1cccc(/C=N/n2c(C)nnc2C)c1`, -0.651%. In the case of `CCC(C)C(=O)Nc1ccccc1N1CCN(c2ccc(F)cc2)CC1` (centres unmarked), the “hERG current change (%, negative = inhibition) at 10uM” value is given as 4.44%. For the compound `O=C(NCCCN1CCOCC1)c1cccc(S(=O)(=O)Nc2cc(Cl)ccc2Cl)c1`, the “hERG current change (%, negative = inhibition) at 10uM” value is -14.6%. The result for `CCOc1ccc(S(=O)(=O)c2c(C(=O)c3ccc(C)cc3)cnc3cc4c(cc23)OCCO4)cc1` reads 4.28%; that for `CC(C)CCNC(=O)C1CC(c2ccc(C(F)(F)F)cc2)=NO1` (centres unmarked), 11.2%. Turning to `Cc1cc(C(=O)COc2cccnc2[N+](=O)[O-])c(C)n1Cc1ccco1`, the “hERG current change (%, negative = inhibition) at 10uM” value was 18.2%. For `C/C(=N\Nc1ccc(C(F)(F)F)cn1)c1ccc(S(=O)(=O)NCc2ccco2)cc1`, the “hERG current change (%, negative = inhibition) at 10uM” value was determined as 18.7%. Consider `CN(CC(=O)Nc1ccncc1)S(=O)(=O)c1ccc(Cl)cc1`, for which the “hERG current change (%, negative = inhibition) at 10uM” value is -5.97%.

`CCOC(=O)C1(C)NC(c2cccc(C)c2)C2C(=O)N(c3ccccc3)C(=O)C21` (centres unmarked): the “hERG current change (%, negative = inhibition) at 10uM” value is -6.22%. On to `Cc1cccc(N=C(NO)c2nonc2N)c1`, for which the “hERG current change (%, negative = inhibition) at 10uM” value came out at 31.8%. For `C#CCO[C@@H]1C[C@H](n2ccc(NC(=O)c3ccccc3)nc2=O)O[C@@H]1CO`, the “hERG current change (%, negative = inhibition) at 10uM” value is on record as -0.478%. As for `O=C1CSC(c2ccccn2)N1c1ccccc1` (centres unmarked), the “hERG current change (%, negative = inhibition) at 10uM” value is listed as -0.577%. On to `Cc1oc(-c2ccccc2F)nc1CS(=O)CC(=O)NCc1ccccc1` (centres unmarked), for which the “hERG current change (%, negative = inhibition) at 10uM” value is recorded as -17.5%.

With `CCOC(=O)Cc1c(C)nc2c(-c3ccccc3)c(C)[nH]n2c1=O`, the “hERG current change (%, negative = inhibition) at 10uM” value is reported as -10.6%. For `CC(=O)N1CCN(c2nc(C)nc3sc4c(c23)CCC(C)C4)CC1` (centres unmarked), the “hERG current change (%, negative = inhibition) at 10uM” value is recorded as -19.3%. As for `CC(C)c1ccc2nc(SCC(=O)NCC3CCCO3)c(C#N)cc2c1` (centres unmarked), the figure is 1.97%; as for `CCN(CC)CCn1c(O)c(N=O)c2ccccc21`, -11.1%. The result for `CCCCC(=O)Nc1ccc2c3c(cccc13)CC2` reads 0.263%; that for `Cc1ccc(C(=O)Nc2cccc(-c3ccc(N4CCOCC4)nn3)c2)cc1[N+](=O)[O-]`, 1.45%; that for `CC(C(=O)O)c1ccc(C(=O)c2ccccc2)s1` (centres unmarked), -3.58%.

As to `CCOC(=O)COc1nc(-c2ccc(C)cc2)cc(-c2ccco2)c1C#N`, the “hERG current change (%, negative = inhibition) at 10uM” value was -5.78%. Take `COc1cc2ccc(=O)oc2c(O[C@@H]2O[C@H](CO)[C@@H](O)[C@H](O)[C@H]2O)c1O.O`: the “hERG current change (%, negative = inhibition) at 10uM” value amounted to 12.5%. The result for `Brc1cc(Br)c2nc3c(cc2c1)CCC3` reads 16.8%. The result for `O=C(COC(=O)[C@@H]1CC(O)CN1S(=O)(=O)c1ccc2c(c1)OCCO2)NCc1ccc(F)cc1` (some centres unmarked) reads 11.8%; that for `CC1CC(C)CN(C(=O)CSCC(=O)O)C1` (centres unmarked), 1.3%. As for `CCOc1ccccc1C(=O)Nc1nn[nH]n1`, the “hERG current change (%, negative = inhibition) at 10uM” value was 12.3%. Consider `COc1cccc(-c2cc(C(=O)N/N=C/c3ccc(OC)c(COC(C)=O)c3)c3ccccc3n2)c1`, for which the “hERG current change (%, negative = inhibition) at 10uM” value is reported as 7.5%. For `O=C(COC(=O)/C=C/c1cc(Br)ccc1F)Nc1ccc2[nH]c(=O)[nH]c2c1`, the “hERG current change (%, negative = inhibition) at 10uM” value is 1.53%. As to `CC(C)CCN(Cc1ccco1)S(=O)(=O)c1ccc(-c2ccc(=O)[nH]n2)s1`, the “hERG current change (%, negative = inhibition) at 10uM” value was -0.664%. As for `COc1ccccc1-n1nc(C)cc1N`, the figure is 19.8%; as for `COc1ccc(OC)c(CC(=O)NC(c2ccccc2)c2ccccc2)c1`, 8.16%. Consider `CC1(C)C/C(=N\O)C(C(O)c2cccc([N+](=O)[O-])c2)C(C)(C)N1` (centres unmarked), for which the “hERG current change (%, negative = inhibition) at 10uM” value came out at 17.2%. As for `Cc1ccc(S(=O)(=O)Nc2cccc(C(=O)NCc3ccc(S(N)(=O)=O)cc3)c2)cc1`, the figure is 21.7%; as for `N#Cc1ccccc1NC(=O)COC(=O)COc1ccccc1[N+](=O)[O-]`, 21.7%; as for `O=c1cc(N2CCCCC2)c(-c2ccccc2)n[nH]1`, 25.1%. The result for `Cc1cccnc1NC(=O)CCCc1c[nH]c2ccccc12` reads 20.5%; that for `O=c1c2nncn2c2cccnc2n1CCNc1ncc(C(F)(F)F)cc1Cl`, -23.4%. As for `CCOC(=O)c1cnn(Cc2cccc(Cl)c2)c1C`, the figure is -7.23%; as for `CN(CCCn1c(=S)[nH]c2ncccc2c1=O)Cc1ccccc1`, -12.5%; as for `Cc1cc(OC(=O)CCNC(=O)OC(C)(C)C)c2c3c(c(=O)oc2c1)CCC3`, -13.1%. For the compound `Cc1ccc(S(=O)(=O)Cc2ccc(C(=O)N3CCN(c4cccc(C)c4C)CC3)o2)cc1`, the “hERG current change (%, negative = inhibition) at 10uM” value is given as -7.95%.

With `Cc1noc(C)c1COc1ccccc1C(=O)N(C)CC(=O)Nc1cccc(F)c1`, the “hERG current change (%, negative = inhibition) at 10uM” value came out at 3.43%. For the compound `COc1ccc(N2CCN(c3nc4ccc(C)cn4c(=O)c3C=O)CC2)cc1`, the “hERG current change (%, negative = inhibition) at 10uM” value is listed as -39.4%. As for `O=C(NCC(=O)N1CCN(S(=O)(=O)/C=C/c2ccccc2)CC1)c1ccc(Cl)cc1`, the figure is -23.1%. On to `Cc1ccc(-c2cc(C(=O)Nc3cc(C)on3)c3ccccc3n2)cc1`, for which the “hERG current change (%, negative = inhibition) at 10uM” value was determined as 4.13%. Take `COc1ccc(C(CCNCc2ccc(N(C)C)cc2)C(C)C)cc1` (centres unmarked): the “hERG current change (%, negative = inhibition) at 10uM” value is listed as -40.5%.

With `COc1ccc(NC(=O)C2CCN(c3ncnc4c3nc3n4CCCCC3)CC2)cc1Cl`, the “hERG current change (%, negative = inhibition) at 10uM” value was -0.67%.

Consider `COc1ccc(S(=O)(=O)NCc2ccco2)cc1-c1nnc2c3ccccc3c(C)nn12`, for which the “hERG current change (%, negative = inhibition) at 10uM” value is listed as -50.3%. As to `COc1ccc(C(=O)Nc2ccc3[nH]ccc3c2)cc1`, the “hERG current change (%, negative = inhibition) at 10uM” value was 18.1%. Take `CC(=O)Oc1cccc(C(=O)Nc2ccc(NC(=O)c3cccs3)cc2)c1`: the “hERG current change (%, negative = inhibition) at 10uM” value was found to be 3.25%. The result for `N#Cc1cn(-c2ccccc2)nc1-c1ccco1` reads 11.2%.

As for `O=C(O)CN1C(=O)/C(=C\c2cccc(OCc3ccc(Cl)cc3Cl)c2)SC1=S`, the “hERG current change (%, negative = inhibition) at 10uM” value worked out at 6.27%. The result for `COCCCNC(=O)c1ccc(NS(C)(=O)=O)cc1` reads -2.85%; that for `COc1ccc(NC(=O)C2CCCN(C(=O)Nc3cccc(OC)c3)C2)cc1` (centres unmarked), -19.2%; that for `CCOC(=O)C1CCCCN1Cc1cccc(OC)c1OC` (centres unmarked), 5.61%. In the case of `O=C(CN1CCN(CC(=O)Nc2ccccn2)CC1)Nc1ccccn1`, the “hERG current change (%, negative = inhibition) at 10uM” value is reported as -36%. As for `CN(c1ccc(C(=O)NCCC2=CCCCC2)cc1)S(C)(=O)=O`, the “hERG current change (%, negative = inhibition) at 10uM” value turned out to be 4.82%. Regarding `O=C(Nc1cccc2nsnc12)c1ccc2c(c1)OCO2`, the “hERG current change (%, negative = inhibition) at 10uM” value was -6.74%. On to `O=c1c2c([nH]n1-c1ccccc1)CCCC2`, for which the “hERG current change (%, negative = inhibition) at 10uM” value is reported as 19.6%. The result for `Cc1cc(=O)[nH]c(N/N=C2/CCCC/C2=C\c2ccccc2)n1` reads -19.1%; that for `COc1ccc(NC(=O)C2CCN(C(=O)C3CC(=O)N(c4ccc(C)cc4)C3)CC2)c(OC)c1` (centres unmarked), -12.7%. As for `CCOc1cc(C(=O)NC2CCCCCCC2)cc(OCC)c1OCC`, the figure is 1.23%; as for `CCn1c2c(c3cc(OCC(C)C)ccc31)CCCC2=O`, 6.13%; as for `COc1ccc2c(c1)OC(O)(C(F)F)CC2=O` (centres unmarked), 3.79%. The result for `COc1ccc(CCNC(=O)CC2Nc3ccccc3NC2=O)cc1` (centres unmarked) reads 0.25%; that for `O=C(NCC1CCCO1)c1cc2ccccc2[nH]1` (centres unmarked), 17.6%. As to `COc1cc(S(=O)(=O)N2CCN(Cc3ccc4c(c3)OCO4)CC2)c(C)cc1C`, the “hERG current change (%, negative = inhibition) at 10uM” value is on record as -6.21%.
